From publication PMC4336329 (PLoS ONE, 2015)
The whole screen tested about 310,000 compounds, of which about 2,200 (0.71%) showed an effect of 50% or more. The effect is printed as a negative number. This is one part of the list.

target: human ether-à-go-go-related gene (hERG) potassium channel (human, UniProt Q12809); assay: primary screen, population patch clamp on CHO cells stably expressing hERG
Sequence (Q12809 whole entry, looked up): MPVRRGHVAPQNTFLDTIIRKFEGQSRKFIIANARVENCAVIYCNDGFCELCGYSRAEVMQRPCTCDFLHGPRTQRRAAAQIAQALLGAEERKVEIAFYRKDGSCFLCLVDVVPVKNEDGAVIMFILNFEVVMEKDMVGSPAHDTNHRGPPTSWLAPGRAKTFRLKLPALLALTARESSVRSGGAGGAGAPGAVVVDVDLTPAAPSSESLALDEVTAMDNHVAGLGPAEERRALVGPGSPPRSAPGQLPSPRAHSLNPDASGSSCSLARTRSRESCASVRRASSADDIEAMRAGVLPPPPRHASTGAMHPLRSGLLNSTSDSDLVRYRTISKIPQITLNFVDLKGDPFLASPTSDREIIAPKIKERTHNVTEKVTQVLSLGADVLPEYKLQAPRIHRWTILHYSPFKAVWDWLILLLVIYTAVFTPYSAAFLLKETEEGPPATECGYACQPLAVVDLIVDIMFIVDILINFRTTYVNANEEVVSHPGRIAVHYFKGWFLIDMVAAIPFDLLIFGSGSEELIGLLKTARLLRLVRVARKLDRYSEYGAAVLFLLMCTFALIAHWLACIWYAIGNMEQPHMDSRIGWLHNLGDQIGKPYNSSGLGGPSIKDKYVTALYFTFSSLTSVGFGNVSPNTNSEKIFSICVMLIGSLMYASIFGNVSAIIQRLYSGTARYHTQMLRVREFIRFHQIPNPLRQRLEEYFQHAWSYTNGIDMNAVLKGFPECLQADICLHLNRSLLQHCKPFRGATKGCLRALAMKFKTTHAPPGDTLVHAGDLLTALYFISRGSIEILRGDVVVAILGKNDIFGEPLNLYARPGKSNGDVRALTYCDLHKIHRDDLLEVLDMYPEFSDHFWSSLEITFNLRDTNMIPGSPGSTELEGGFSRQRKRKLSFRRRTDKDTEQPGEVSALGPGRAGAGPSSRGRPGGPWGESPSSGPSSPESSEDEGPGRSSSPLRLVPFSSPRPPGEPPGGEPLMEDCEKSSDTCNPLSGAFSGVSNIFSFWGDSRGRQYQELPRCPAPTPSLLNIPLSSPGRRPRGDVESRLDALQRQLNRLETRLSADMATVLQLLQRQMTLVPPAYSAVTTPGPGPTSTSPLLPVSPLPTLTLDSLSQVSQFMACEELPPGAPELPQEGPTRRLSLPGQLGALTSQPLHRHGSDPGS

Compound	hERG current change (%, negative = inhibition) at 1uM
Cc1nnc(SCC(=O)Nc2sc3c(c2C#N)CCCCC3)n1N	5.12%
Cc1nnc(SCc2ccc(Cl)cc2)n1CC1CCCO1 (stereo not drawn)	13.4%
COc1cccc2cc(C(=O)NCc3ccccc3)c(=N)oc12	17.6%
CC1CCCN(c2oc(-c3cccc4ccccc34)nc2C#N)C1 (stereo not drawn)	17%
Cc1ccc2[nH]c(=O)c(COC(=O)c3cccs3)cc2c1	0.844%
CC1Cc2ccccc2N1C(=O)COC(=O)c1ccc(Br)o1 (stereo not drawn)	14.9%
COCc1cc(C)nc(SCC(=O)Nc2ccc(N3CCOCC3)cc2)c1C#N	0.339%
COc1ccc(C(=O)NC2CC3CCCC(C2)N3CC(C)C)cc1 (stereo not drawn)	-13.5%
CCOC(=O)COc1ccc(S(=O)(=O)N2CCc3ccccc3C2)cc1	8.74%
O=C(NC12CC3CC(CC(C3)C1)C2)c1cccc(OC(F)F)c1	-25.2%
CCOC(=O)c1sc2nc(C)c([N+](=O)[O-])c(COC)c2c1N	2.43%
O=C(c1cccc(S(=O)(=O)N2CCN(c3ccc(F)cc3)CC2)c1)N1CCCCCCC1	-23%
COc1cccc(-n2cnc3c(sc4nc(N5CCOCC5)c5c(c43)CCCC5)c2=O)c1	12.3%
O=C(c1cccs1)N(C(=O)c1cccs1)c1ccc(Br)cn1	1.3%
CC1CN(CCc2ccccc2)C(C)C/C1=N/O (stereo not drawn)	12.1%
CCOc1ccc(S(=O)(=O)Nc2ccc(F)cc2)c(C)c1C	4.33%
COc1ccc(C(=O)Nc2cccc(-c3ccc(N4CCOCC4)nn3)c2)cc1	0.554%
C/C(Nc1ccccc1C(F)(F)F)=C1/CCOC1=O	11.7%
CCc1nc2oc3cc(OC)ccc3c(=O)c2c(=O)n1Cc1ccco1	-11.4%
Cc1ccc(CNC(=O)C2CCC(=O)N2Cc2ccccc2Cl)cc1 (stereo not drawn)	11.5%
COCCCNC(=S)N(CCO)Cc1cc2cc3c(cc2[nH]c1=O)OCO3	7.94%
Cc1ccc(C(=O)Nc2c(C)n(C)n(-c3ccccc3)c2=O)cc1	4.16%
Cc1c(Cc2ccccc2)c(=O)oc2cc(OCC(=O)NCC3CCC(C(=O)O)CC3)ccc12 (stereo not drawn)	15.7%

Compound	hERG current change (%, negative = inhibition) at 1uM
NC(=O)C1CCN(CCS(=O)(=O)c2ccc(Cl)cc2)CC1	8.49%
CCC(C)c1ccccc1OCCCCN1CCCC1 (stereo not drawn)	0.625%
CC12CCC(c3c(C(=O)Nc4nccs4)nn(-c4ccccc4)c31)C2(C)C (stereo not drawn)	3.91%
O=C1[C@@H]2[C@H](Cc3ccc(O)cc3)N[C@]3(C(=O)Nc4ccccc43)[C@@H]2C(=O)N1c1ccc(F)cc1	4.46%
Cc1ccnc(NC(=O)COc2ccc(Cl)cc2)n1	1.73%
O=C(c1ccc(N2CCC3(CC2)OCCO3)c([N+](=O)[O-])c1)N1CCOCC1	1.27%
COc1nc(OCCNC(C)=O)nc(N(C)C)n1	-7.2%
COc1ccc(Cc2nnc(SCc3c(C)noc3C)n2C2CCCCC2)cc1OC	6.99%
O=C(Nc1ccccc1C(=O)N1CCOCC1)c1ccc(F)cc1	17.5%
O=C(N/N=C/C(Br)=C\c1ccccc1)c1n[nH]c2c1CCC2	9.36%
Cc1ccc(S(=O)(=O)C2(C(=O)Nc3cccc(F)c3)CC2)cc1	9.39%
CC1(C)Cc2cccc(OCC(=O)N3CCN(c4ccccc4F)CC3)c2O1	0.623%
COc1ccc(C(=O)OC(C)CN2CCN(C)CC2)cc1OC.Cl (stereo not drawn)	13.3%
O=C1CCCc2ccccc2N1Cc1ccc(Cl)cc1	-2.3%
Cc1cc(C(F)(F)F)nn1CC(=O)N1CCCC1	0.46%
CC1Cc2cc(S(=O)(=O)N3CCC(C(=O)N(C)Cc4ccccc4)CC3)ccc2N1C(=O)C1CC1 (stereo not drawn)	12.4%
COc1cc(NC(=O)c2cccs2)ccc1NC(=O)c1cc2ccccc2o1	8.63%
Cn1c(O)c(C=NC2CCCCCC2)c(=O)[nH]c1=S	9.9%
O=C(c1cn(-c2ccccc2)nc1-c1cccnc1)N1CCCCC1	2.79%
O=C(NC(=O)c1ccccc1N1CCCCC1)Nc1ccc(Br)cc1	15.9%
COc1cccc2sc3ccc(C#Cc4ccc(N)cc4)cc3c(=O)c12	12.9%
O=S(=O)(Nc1cccnc1)c1cccc(C(F)(F)F)c1	-3.93%
Cc1sc2nc(C)n(/N=C/c3ccccc3)c(=O)c2c1C	-15%

Compound	hERG current change (%, negative = inhibition) at 1uM
CC1Sc2n(c3ccccc3[n+]2C)N=C1c1ccccc1.[Br-] (stereo not drawn)	-16.8%
Cc1ccc(C)c(S(=O)(=O)N2CCN(C(=O)c3ccc4ccccc4n3)CC2)c1	8.87%
Cn1c(=O)[nH]c(=O)c2c1nc1n2CCCN1Cc1ccccc1	13.9%
COc1cc2c(cc1NC(=O)C(C)Sc1cccc[n+]1[O-])oc1ccccc12 (stereo not drawn)	-5.56%
Cc1nccn1CC(=O)c1ccc(O)c(O)c1.Cl	13.8%
COc1cc(/C=N/NC(=S)NCCN2CCOCC2)cc(OC)c1O	8.48%
CCN(CC)S(=O)(=O)c1cccc(C(=O)N/N=C/c2ccccn2)c1	-3.66%
CCC(CO)NC(=O)c1cccc(S(=O)(=O)N2c3ccccc3CC2C)c1 (stereo not drawn)	5.9%
CCOc1ccc(C(=O)C[n+]2ccc(C(=O)NCc3ccccc3)cc2)cc1.[Br-]	4.11%
COc1cc(NC(=O)C2CCCN(c3ncnc4c3nc3n4CCCCC3)C2)cc(OC)c1OC (stereo not drawn)	8.85%
CC(SC1=NCCS1)C(=O)Nc1nnc(-c2ccc(F)cc2)s1 (stereo not drawn)	9.18%
N#C/C(=C/c1ccc(Br)o1)C(N)=S	15.8%
CCC(C)n1c(=O)c2sccc2n2c(CCCC(=O)N3CCC(C(N)=O)CC3)nnc12 (stereo not drawn)	1.31%
O=C(CCCCCNc1nc(=S)[nH]c2ccccc12)N1CCN(c2ccccn2)CC1	-12%
O=C(c1ccc(Br)o1)N1CCN(CCOc2ccccc2)CC1	-24.1%
C=CCNC(=O)NC(=O)COC(=O)C(C)Oc1ccc(Cl)cc1Cl (stereo not drawn)	16.3%
Cc1ccc(C(=O)N/C(=C/c2ccc(Cl)cc2)C(=O)Nc2cccc(C(=O)O)c2)cc1	7.54%
OCCC1CN(Cc2cccn2-c2nccs2)CCN1Cc1ccccc1 (stereo not drawn)	-21.7%
COc1ccc(F)c(CN(C)CC2CCCN(CCc3ccc(F)cc3)C2)c1 (stereo not drawn)	-42.1%
COc1ccc(N2C(=S)NC(C)(C)CC2(C)c2ccc(OC(C)=O)cc2OC(C)=O)cc1 (stereo not drawn)	-2.64%
CN1c2cccc3cccc(c23)N(C)C1(C)C	2.36%
CCOC(=O)C1CCN(C(=O)CCS(=O)(=O)c2ccc3c(c2)n(C)c(=O)c(=O)n3C)CC1	10.2%
O=C(Nc1ccc2[nH]ncc2c1)c1ccccc1	17.6%

Compound	hERG current change (%, negative = inhibition) at 1uM
Cc1cc(NC(=O)c2cc(F)c(F)cc2Cl)no1	9.29%
Cc1cc2cc(CN(Cc3ccc4c(c3)OCO4)Cc3nnnn3C3CCCC3)c(=O)[nH]c2cc1C	9.37%
CC1CCCC(NC(=O)c2ccc3c(=O)n(CC4CCCO4)c(=O)[nH]c3c2)C1C (stereo not drawn)	-4.67%
COc1ccc(OCCCC(=O)OCC(=O)Nc2sccc2C(N)=O)cc1	-6.77%
CCOC(=O)C1(Cc2cccc(Cl)c2)CCCN(C(=O)c2cc(C)n(C)n2)C1 (stereo not drawn)	3.36%
CCOC(=O)c1[nH]c(C)c(C(=O)OCC(=O)N(CC)C2CCS(=O)(=O)C2)c1C (stereo not drawn)	-8.94%
O=c1c(=Nc2ccccc2O)c(=O)c2ccccc12	17.3%
CCOC(=O)CCCC(=O)N1CCOCCOCCOCC1	-4.98%
CCc1ccc(CCC(=O)Nc2nccs2)o1	-2.36%
COc1cc(N2CCOCC2)ccc1/C=C1\C(=O)NC(=O)N(Cc2ccc3c(c2)OCO3)C1=O	9.59%
COCCNC(=O)Cn1nc(-c2ccc(Cl)cc2)c2ccccc2c1=O	10.4%
O=C1CCN(Cc2cccnc2)CCN1[C@H](CO)Cc1ccccc1	1.02%
CN1C(=O)/C(=C/c2ccc(C(=O)Nc3ccc(O)cc3C(=O)O)cc2)SC1=S	12.1%
COc1ccc(-c2ccc(CCC(=O)O)n2C(C)C)cc1	-0.0723%
COc1ccc(-c2nnc3sc(COc4ccccc4)nn23)cc1	4.67%
C#CC1(NC(=O)NCCCC)CCCCC1	14.1%
NS(=O)(=O)c1cccc(NC(=O)c2cc3ccccc3o2)c1	15.5%
CC(CN1CCCCC1)OC(=O)c1ccco1.Cl (stereo not drawn)	19.7%
Oc1ccc(/C=N/Nc2ccc(Cl)nn2)c(O)c1O	16.5%
CCCCn1c(N)c(N(C)C(=O)c2cn(-c3ccccc3)nc2-c2ccccc2)c(=O)[nH]c1=O	5.48%
CCN(CC)CCCNC(=O)c1csc(Nc2cccc3ccccc23)n1	-45.6%
